# According to the supplement of paper PMC10126150:
# Values marked as one replicate rest on one cluster of the flow cell; about a third of the high ones do not repeat.
# Test system: ATP
# Assay: switch fluorescence ratio, 500 uM ATP over buffer (Cy3 cluster intensity, sum of 5 cycles each) (fold (ratio)); higher = stronger signal-on switching upon ATP binding; sequences stand for … in TCGTCGGCAGCGTCAGATGTGTATAAGAGACAGTTTTTTTTTTTTTTTTTTTTTTTTT…TC
# Details: aptamer strand: ATP DNA aptamer (quencher-CACCTGGGGGAGTATTGCGGAGGAAGG + anchor), 100 nM annealed; ATP concentration: 500 uM; one replicate
# Outline: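 For every switch-domain sequence, the fluorescence ratio is the mean of per-cluster values, each being summed target-cycle Cy3 intensity over summed buffer-cycle Cy3 intensity. Clusters outside 100-1000 RFU were excluded. On a modified Illumina MiSeq flow-cell, the Cy3-labelled switching-strand clusters were annealed to 100 nM quencher-labelled ATP aptamer, imaged in selection buffer and then after 15 min with 500 uM ATP at 22 °C. Five such cycles were run, with NaOH stripping and re-annealing between them.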
# 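Note: ATP exposure 15 min at 22 °C before imaging.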
row,Sequence,switch fluorescence ratio
1,TGTATTTAG,0.996
2,TGTATTTG,1
3,TGTCAGAGCA,0.961
4,TGTCATAGTA,0.967
5,TGTCATCAA,0.96
6,TGTCATCAAG,1.02
7,TGTCATCAAT,0.948
8,TGTCATGAAT,0.97
9,TGTCATGGGA,0.965
10,TGTCCACATA,1.08
11,TGTCCCGATA,1.02
12,TGTCCCTGCT,0.995
13,TGTCGATATA,1.02
14,TGTCGGTT,1.03
15,TGTCGGTTGC,1.03
16,TGTCGTGCCT,0.995
17,TGTGAAAATG,0.961
18,TGTGACAAGA,1.07
19,TGTGACCGGC,1.13
20,TGTGACGCAT,1.15
21,TGTGACGCCG,0.985
22,TGTGACGGTG,0.988
23,TGTGACTTCA,1
24,TGTGAGCCGA,0.965
25,TGTGATCCTT,1.05

row,Sequence,switch fluorescence ratio
1,TGTGCACCCG,1.02
2,TGTGCACTTA,1
3,TGTGCAGGGA,1.03
4,TGTGCGTATC,1.02
5,TGTGGATGGG,0.956
6,TGTGGCAAAT,0.995
7,TGTGGGATA,0.966
8,TGTGGGATAA,0.982
9,TGTGGGGAGA,0.999
10,TGTGGGTCAA,0.972
11,TGTGGGTGG,0.952
12,TGTGGGTTGC,0.988
13,TGTGGGTTGT,1.01
14,TGTGGTCATT,1.11
15,TGTGGTTCTG,0.981
16,TGTGGTTGT,1
17,TGTGGTTTGC,1.03
18,TGTGTAAGCC,1.06
19,TGTGTAAGGA,0.961
20,TGTGTAAGTT,1.02
21,TGTGTCTAGA,1.03
22,TGTGTGAGCA,0.994
23,TGTGTGATCC,0.908
24,TGTGTGCCAG,0.984
25,TGTGTGCGTC,0.964

row,Sequence,switch fluorescence ratio
1,TGTGTGCT,1.02
2,TGTGTGGGCC,0.953
3,TGTGTTA,0.947
4,TGTGTTACTG,1.01
5,TGTGTTTTAC,1.12
6,TGTTAATACC,0.97
7,TGTTAATCTT,1.04
8,TGTTAATTAA,0.997
9,TGTTACAAGC,1.06
10,TGTTACTTTA,1.04
11,TGTTAGCTAA,0.985
12,TGTTAGTAGA,1.03
13,TGTTAGTTTC,0.981
14,TGTTATGTGG,0.992
15,TGTTATTCTC,0.976
16,TGTTCAATAA,1.01
17,TGTTCATTGT,0.95
18,TGTTCCATGT,0.953
19,TGTTCCTGGG,1.05
20,TGTTCGAGCG,1.02
21,TGTTCGCTAC,3.64
22,TGTTCGTGCG,1.04
23,TGTTCTCTAA,0.968
24,TGTTCTGTGG,0.971
25,TGTTGAAATG,0.981

row,Sequence,switch fluorescence ratio
1,TGTTGACTTG,1.04
2,TGTTGCTAGC,1.06
3,TGTTGGCCAT,0.971
4,TGTTGGCCGA,1.02
5,TGTTGTCCCG,0.976
6,TGTTGTCCGA,0.977
7,TGTTGTT,1
8,TGTTTAGAAC,1.11
9,TGTTTATACG,0.949
10,TGTTTCAACG,0.951
11,TGTTTCACTC,1.02
12,TGTTTGCGTG,0.966
13,TGTTTGGTTC,1.26
14,TGTTTTGG,0.971
15,TGTTTTTTAC,1.04
16,TTAAAAGCTC,0.974
17,TTAAAAGGAC,1.07
18,TTAAAAGTAA,0.995
19,TTAAAATAT,0.982
20,TTAAACATG,0.987
21,TTAAAGACCA,1.01
22,TTAAAGAGTT,0.989
23,TTAAAGGCAT,1.02
24,TTAAATATTC,0.995
25,TTAAATGATA,1.03
